Our source for the z-score values is PubChem BioAssay AID488969 (Vanderbilt High Throughput Screening Facility, 2010).

Molecules are shown by their SMILES. Whole data set: some 110,000 compounds, median “z-score” near -0.1, cut for the highest 2% near 2. The list shows a part of the results.

In the experiment the target is Metabotropic glutamate receptor 8 (Rattus norvegicus) (UniProt P70579). The experiment can be described thus: mGluR8 Gi/Go-coupled signaling modulation – cell-based, rat, thallium flux, HTS, primary screen (AID 488969). The conditions noted are these: HEK293 rat mGluR8, GIRK (G protein-gated inwardly rectifying potassium channel) thallium flux, FluoZin2; at 10 µM; stronger effect = higher value; submaximal glutamate (EC20) added with thallium.
Chain of UniProt P70579 (P70579 whole entry, looked up): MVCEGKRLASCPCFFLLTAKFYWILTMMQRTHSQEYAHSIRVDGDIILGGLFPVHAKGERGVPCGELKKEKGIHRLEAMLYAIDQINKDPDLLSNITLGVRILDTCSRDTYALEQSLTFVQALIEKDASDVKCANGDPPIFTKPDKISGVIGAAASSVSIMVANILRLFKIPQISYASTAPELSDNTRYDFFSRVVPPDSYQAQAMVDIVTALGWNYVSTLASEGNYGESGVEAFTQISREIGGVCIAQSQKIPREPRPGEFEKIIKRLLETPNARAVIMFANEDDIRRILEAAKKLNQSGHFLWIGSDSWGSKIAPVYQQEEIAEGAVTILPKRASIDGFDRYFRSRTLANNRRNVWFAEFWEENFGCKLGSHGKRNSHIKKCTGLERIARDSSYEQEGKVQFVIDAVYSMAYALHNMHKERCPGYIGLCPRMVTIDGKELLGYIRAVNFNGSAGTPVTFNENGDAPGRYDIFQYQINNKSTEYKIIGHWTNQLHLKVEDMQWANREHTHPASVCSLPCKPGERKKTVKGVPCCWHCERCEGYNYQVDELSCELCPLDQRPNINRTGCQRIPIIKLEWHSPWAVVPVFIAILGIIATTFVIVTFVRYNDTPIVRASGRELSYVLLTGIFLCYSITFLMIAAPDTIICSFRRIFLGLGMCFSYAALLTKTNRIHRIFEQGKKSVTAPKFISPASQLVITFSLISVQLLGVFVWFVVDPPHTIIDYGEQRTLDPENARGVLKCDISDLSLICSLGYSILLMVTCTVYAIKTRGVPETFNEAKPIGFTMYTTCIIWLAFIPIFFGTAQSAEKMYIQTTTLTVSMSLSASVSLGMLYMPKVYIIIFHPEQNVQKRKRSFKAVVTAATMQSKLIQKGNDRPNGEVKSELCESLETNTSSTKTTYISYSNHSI
Molecule `Cn1c(SCC(=O)Nc2ccc(NC(=O)c3cccs3)cc2)nnc1-c1ccncc1` gave a z-score of -0.972.
The value for `Cc1cc2c(cc1C)CSC(c1c(O)ccc3ccccc13)SC2` was -0.228.
`COC(=O)c1cccnc1-n1c(=O)c2cccnc2n(Cc2ccc(Cl)cc2)c1=O` gave a z-score of 1.63.
With `CC(C)CNC(=O)COC(=O)c1cc(S(=O)(=O)N2CCCCC2)ccc1N1CCOCC1` the figure was 0.557.
The value for `CN(C)CCNc1oc(/C=C/c2ccccc2)nc1C#N` was 0.0165; that for `COc1ccc(Oc2coc3c(CN4CCOCC4)c(O)ccc3c2=O)cc1` was -0.0814; that for `CC1CC(C)(C)CC2(C1)NC(=S)N(c1ccccc1)N2` (stereo not given) was -0.119.
Consider `O=C(NCc1ccco1)C1CCCN(S(=O)(=O)Cc2ccccc2)C1` (stereo not given), for which the z-score is -0.533.
Take `Fc1ccc(CNC(=S)Nc2ccc(Cl)cc2Cl)cc1`: the z-score turned out to be 0.134.
With `Cc1ccc(C(=O)COc2nc(C)cc(C)c2C#N)cc1` the figure was -0.374.
The value for `CCNC(=S)NNC(=O)C(c1ccccc1)c1ccccc1` was -0.324; that for `COc1cc(C(=O)N(Cc2cccc(Cl)c2)C2CCS(=O)(=O)C2)cc(OC)c1OC` (stereo not given) was -0.352; that for `O=C1Nc2ccccc2N(O)N1c1ccc(S(=O)(=O)N2CCOCC2)cc1` was 0.342.
`CCOc1cc(C=O)ccc1OCCSc1ccc(C)cc1` registered a z-score of -0.295.
With `CCOc1ccc2[nH]c(=S)[nH]c2c1` the figure was 0.0798.
With `O=C(NCCCN1CCOCC1)c1ccc(-n2nc(C(F)(F)F)cc2-c2cccs2)cc1` the figure was -0.136; with `CCSc1nc(O)c(CC)c(=O)n1C(C)CC` (stereo not given), -0.314.
Molecule `Cc1nc(C)c(CCNC(=O)c2ccc(C(F)(F)F)cc2)s1` registered a z-score of -0.441.
The value for `COc1ccccc1NC(=O)CN(c1ccccc1F)S(C)(=O)=O` was -0.128; that for `COC(=O)c1ccccc1NC(=O)Oc1ccc(F)cc1` was -0.162; that for `CCN(CC)S(=O)(=O)c1ccc(N2CCOCC2)c(NS(=O)(=O)c2ccc(C)c(C)c2)c1` was -0.317.
With `Cc1cc(C)cc(OC(C)c2ccnc3nc(/N=C/N(C)C)nn23)c1` (stereo not given), the z-score is -0.747.
The molecule `COC(=O)C(C)(C(=O)OC)c1ccc([N+](=O)[O-])cn1` displayed a z-score of -0.0772.
The value for `O=C1/C(=C/c2cccs2)Cc2ccccc21` was -0.366; that for `COC(=O)c1ccccc1NC(=O)c1cc(-c2ccc(OC)c(OC)c2)on1` was 0.592.
With `Oc1c(C(Nc2cccc(C(F)(F)F)c2)c2cccnc2)ccc2cccnc12` (stereo not given) the figure was -0.0191; with `Cc1ccc(C(=O)OC2CCS(=O)(=O)c3sccc32)cc1` (stereo not given), -0.0101.
With `COCCCN1C(=O)C(=O)/C(=C(/O)c2ccc(OC)cc2)C1c1ccc(O)c(OC)c1` (stereo not given) the figure was -0.18; with `COc1cccc(N2CCN(CC(=O)C34CC5CC(CC(C5)C3)C4)CC2)c1`, 0.0526; with `CCOC(=O)c1ccccc1NC(=O)c1cccc(F)c1`, 0.0409.
In the case of `N#Cc1nc(Cc2cccc3ccccc23)oc1NCC1CCCO1` (stereo not given), the z-score was 0.423.
With `O=C(CSc1nnnn1-c1ccccc1)NCc1cccs1` the figure was 0.182.
With `Cc1ccc(S(=O)(=O)N(CC(=O)Nc2ccccc2-c2ccccc2)c2ccc(C)cc2C)cc1` the figure was 0.238; with `Cc1c(/C(O)=C2\C(=O)C(=O)N(CCN(C)C)C2c2cccnc2)cnn1-c1ccccc1` (stereo not given), 0.102; with `COC(=O)c1ccccc1S(=O)(=O)N1CCC(c2nc3ccccc3o2)CC1`, -0.675.
The value for `COCc1[nH][nH]c(=O)c1C=Nc1ccc(Cl)cc1` was -0.108; that for `C[C@H](NS(=O)(=O)c1ccccc1F)C(=O)OCC(=O)N1CCc2ccccc21` was -0.253.
The molecule `Nc1nc(SCc2nc3scc(-c4cccs4)c3c(=O)[nH]2)n[nH]1` showed a z-score of -0.437.
The value for `CCOc1ccccc1C1NC(=O)NC(C)=C1C(=O)OC1CCCCC1` (stereo not given) was -0.569; that for `CCc1ccc(-c2nc(CN3CCCC(C(=O)NCCc4ccc(OC)c(OC)c4)C3)c(C)o2)cc1` (stereo not given) was 2.2.
With `CCOc1ccccc1C(=O)OCC(=O)Nc1ncc(C(F)(F)F)cc1Cl` the figure was -0.0395.
With `CCOC(=O)c1cn(-c2ccc(F)c(F)c2)c2c(F)c(F)c(F)c(F)c2c1=O` the figure was 0.827.
Regarding `COc1ccc(S(=O)(=O)Nc2cc(C(=O)NC3CCCCCC3)ccc2N2CCOCC2)cc1`, the z-score was -0.0198.
The value for `Cc1ccc(C)c(Cn2c(=O)n(-c3ccc(CC(=O)NCc4ccco4)cc3)c(=O)c3sccc32)c1` was -0.162; that for `Cc1cc(NC(=O)Nc2cccc(C(F)(F)F)c2)no1` was -0.232; that for `COc1ccccc1-c1c(C#N)c(SCC(=O)N2CCCC2)nc(C)c1C(N)=O` was 0.169.
With `c1cncc(C(c2nnnn2C2CCCCC2)N2CCN3CCCC3C2)c1` (stereo not given) the figure was -0.106; with `CN(c1cccc(Cl)c1)S(=O)(=O)c1cccc(C(=O)NC2=NCCS2)c1`, -0.0496.
The value for `COc1cccc(CNC(=O)C2CCN(Cc3cnn(-c4ccccc4)c3-n3cccc3)CC2)c1` was 2.66; that for `CCOc1ccc(S(=O)(=O)Nc2ccc(S(=O)(=O)N3CCCC3)cc2)cc1` was -0.00586.
`O=C(N/N=C\c1ccccn1)C1COc2cc3ccccc3cc2O1` (stereo not given) gave a z-score of 1.5.
Molecule `CC(=O)N1N=C(c2ccccc2O)OC1(C)CC(=O)Nc1ccccc1` (stereo not given) registered a z-score of -0.135.
With `CS(=O)(=O)c1nc(-c2ccco2)cc(C(F)(F)F)n1` the figure was -0.814; with `CCCC(=O)N1CCN(c2ccc(NC(=O)c3ccc(OCC)c([N+](=O)[O-])c3)cc2)CC1`, 0.047.
With `N/C(=N\c1nc2c(c(=O)[nH]1)CCC2)Nc1cccc(Cl)c1` the figure was -0.145; with `CCOCCCNC(=O)c1cc(Sc2ccc(F)cc2)nc2ccccc12`, -0.917; with `CC(=O)Nc1ccc2c(c1)OCCO2`, 0.347.
The value for `O=C(OCCN1CCCC1=O)c1cncc(Br)c1` was 0.0878.
`NC(=O)c1sc2nc(N3CCOCC3)c3c(c2c1N)CCCC3` yielded a z-score of 0.0122.
With `O=C(NC1CCCC1)C(c1ccncc1)N(Cc1cccs1)C(=O)c1csnn1` (stereo not given), the z-score is 0.532.
In turn, `Cc1ccc(S(=O)(=O)NCC(=O)OCC(=O)Nc2ncc(Cl)cc2Cl)cc1` yielded a z-score of -1.17.
With `O=C(Nc1ccccc1[N+](=O)[O-])C1=C(O)CCn2c1nc1ccccc12` the figure was -0.237; with `O=C(/C=C/c1ccccc1)NC(=S)Nc1ccc(CN2CCOCC2)cc1`, 0.0788; with `Cc1ccc(C(=O)O/N=C2\CC3CCC2(C)C3(C)C)cc1` (stereo not given), 0.262.
The value for `COc1ccc(C(C#N)Nc2ccccc2C)cc1` (stereo not given) was -0.219; that for `CCCN1C(=O)C(O)(C/C(C)=N/O)c2ccccc21` (stereo not given) was 0.162; that for `CCc1nc(-c2ccc(C)nc2OC)no1` was 0.176.
The value for `O=C(CSc1ncn[nH]1)Nc1ccc2c(c1)CCC2` was -0.0751; that for `CC(=O)c1c(C)[nH]c(C(=O)Nc2cccnc2)c1C` was 0.0832; that for `COc1ccc(NC(=O)Cn2c(=O)sc3ccccc32)cc1` was -0.492.
